Assay results published in PubChem BioAssay AID504832 (National Center for Advancing Translational Sciences (NCATS), 2011).
Hit rate of the full screen: of about 310,000 compounds, about 18,000 (5.8%) were called active. Inconclusive means that the source gave no clear call. Such entries were picked first, then a sample of the others. Calls follow the shape of the dose curve; as a rule, active = well fitted inhibition curve with a large enough effect; inconclusive = small, poorly fitted or top-dose-only effect, or another doubt; inactive = no such curve, though single readings can be large or run the other way. No potency is given beside an inconclusive call; the fits are too rough.
% is scaled to controls: 0 for no effect and ±100 for the full control effect; potency is read from the fitted curve at half-maximal effect; tags tell the direction and shape of the fitted curve.

Assay: Primary qHTS for delayed death inhibitors of the malarial parasite plastid, 48 hour incubation
Details: P. falciparum luciferase growth in erythrocytes; series mostly up to 28.7 µM; activity change, negative = inhibition: at the top concentration
How it was run: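 A one-generation exposure of luciferase-tagged malaria parasites in RPMI 1640/Albumax erythrocyte culture, 37 C and 5% CO2. Inhibition is inferred from decreased luminescence after adding detection reagent.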
For `Cc1cc(N2CCN(C(=O)c3ccco3)CC2)n2nc(C)c(-c3ccccc3)c2n1`, the Potency was active: 11.7 µM.
With `O=C(NC1CCCCC1)C(c1ccc(F)cc1)N(CCN1CCOCC1)C(=O)c1ccc(-c2ccccc2)[nH]1` (centres undefined) the Potency was inconclusive [inhibitor, partial curve].
In the case of `O=c1[nH]c(=S)n(C2CC2)c(O)c1C=NCCc1ccccc1`, the “activity change, negative = inhibition” value is reported as inactive: -4.92%.
For `COc1ccc(C(CNC(=O)COc2ccc(F)cc2Br)N2CCCC2)cc1` (centres undefined), the Potency was inconclusive [inhibitor, single point].
For `C#CCOCCOCCOCCNc1nc(N2CCN(C(=O)[C@H](Cc3cc4ccccc4[nH]3)n3cc([C@@H](N)C(C)CC)nn3)CC2)nc(N2CCN(C(=O)[C@H](Cc3cc4ccccc4[nH]3)n3cc([C@@H](N)CC(C)C)nn3)CC2)n1` (some centres undefined), the Potency was active: 11.7 µM.
With `C=CCc1cc(/C=N\NC(=O)CSc2nnc(CCCc3ccc(OC)c(C)c3)o2)cc(OC)c1O` the Potency was active: 3.7 µM.
In the case of `Cc1cc(C(=O)Nc2ccc(C#N)cc2)on1`, the “activity change, negative = inhibition” value is reported as inactive: 36.3%.
For `CC(=O)N/N=C/c1cc(C)n(-c2ccc(Br)cc2)c1C`, the Potency was inconclusive [inhibitor, partial curve, poor fit].
For `CCN(CC)c1ccc(C(=O)N/N=C/c2ccc(OC)cc2OC)cc1`, the Potency was inconclusive [inhibitor, single point].
For `CCN1CCN(c2ccc(S(=O)(=O)N3CCCCC3)cc2NC(=O)c2cccc(NC(C)=O)c2)CC1`, the Potency was active: 13.1 µM.
In the case of `Cc1nc2ccccc2n1CC(=O)NC(C)C1CC2CCC1C2` (centres undefined), the Potency is reported as inconclusive [inhibitor, single point].
For `COc1ccc(-c2cc(-c3ccc(C)cc3)n[nH]2)c(O)c1`, the Potency was inconclusive [inhibitor, single point].
For `O=C(COc1ccccc1)N=C1SC2CS(=O)(=O)CC2N1c1ccc(F)cc1` (centres undefined), the “activity change, negative = inhibition” value was inactive: 19.6%.
With `CCOC(=O)CNC(=O)C1c2ccccc2Oc2ccccc21` the “activity change, negative = inhibition” value was inactive: 37.5%.
In the case of `CCCOc1ccc(/C=N/NC(=S)Nc2ccccc2[N+](=O)[O-])c(O)c1`, the Potency is reported as active: 2.62 µM.
With `O=C(COC(=O)CCSc1ccccc1)Nc1cc(F)ccc1F` the “activity change, negative = inhibition” value was inactive: 0%.
For `CCOC(=O)C1=C(C)C2C3C(=O)N(c4ccc(C)cc4C)C(=O)C3C1(C)C1C(=O)N(c3ccc(C)cc3C)C(=O)C21` (centres undefined), the Potency was inconclusive [inhibitor, full curve].
For `C[C@H](NC(=O)c1nc[nH]c1C(=O)N1CCN(C(=O)OC(C)(C)C)CC1)C(=O)OC(C)(C)C`, the Potency was inconclusive [inhibitor, single point].
In the case of `CN1C(=O)C(C)(C)c2cc(S(=O)(=O)N3CCC(C(=O)NCc4ccc(Cl)cc4)CC3)ccc21`, the Potency is reported as inconclusive [inhibitor, partial curve].
